Several values for one entry are separate records, joined by “and”; a condition that tells them apart may be missing. Equal values may be shown once. Out of some 340,000 compounds screened, about 12,000 (3.5%) were called active. The inconclusive results got no clear call from the source; some entries with a clear call stand among them for comparison. The call rests on the fitted dose curve; in most records, active means well fitted inhibition curve with a large enough effect; inconclusive means small, poorly fitted or top-dose-only effect, or another doubt; inactive means no such curve, though single readings can be large or run the other way. Potencies of inconclusive entries are doubtful fits and often do not repeat.
Assay: qHTS Assay for Inhibitors of Hepatitis C Virus (HCV)
Details: Huh7.5.1 HCVcc-Cre (HCVcc is cell-culture hepatitis C virus) infection, luciferase reporter, 44 h; series mostly up to 41.8 µM
Procedure, shortened: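 Luciferase read-out (15 sec integration) after a 15 min room-temperature substrate step quantifies HCVcc-Cre infection. Cells, 1,000 per well, had compound added 4 h post-plating, then virus at ~0.5 moi, and were cultured 44 h.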
Potency means the concentration at half of the fitted maximal effect; tags describe the fitted curve by direction and shape.

SMILES	Potency
Cc1ccc(S(=O)(=O)N(C)CCCC(=O)Nc2cccc3ccccc23)cc1	inconclusive: 31.6 µM [inhibitor, single point]
CSc1nc(N2CCN(c3ccccc3)CC2)cc(N2CCN(c3ccccc3)CC2)n1	inconclusive: 2.82 µM [inhibitor, full curve]
CCc1ccc(-c2nc(CSCC(=O)N3CCN(c4ccccn4)CC3)c(C)o2)cc1	active: 15.8 µM
Cc1cc(C)c(-c2csc(NC(=O)/C=C/c3cccs3)n2)c(C)c1	active: 10 µM
O=C(Nc1ccc(NC(=O)c2ccc3c(c2)OCCO3)cc1)c1ccccc1	inconclusive: 10 µM [inhibitor, partial curve]
Cc1ccc(N2C(=O)C3N=NN(CC(=O)N4N=C(c5cccc6ccccc56)CC4c4ccccc4)C3C2=O)cc1 (centres undefined)	inconclusive: 10 µM [inhibitor, single point]
Nc1ccc(NC(=O)c2ccco2)c(Cl)c1	inactive
Cc1cccc(Cn2ncc(Cl)c(Cl)c2=O)c1	active: 3.55 µM
Cc1ccc(NC(=O)c2ccco2)c(NC(=O)COc2ccccc2)c1	inactive
CSc1cc(SC)ncn1	inactive
CCCC(=O)N1CCN(c2nc3ccccc3s2)CC1	inconclusive: 22.4 µM [inhibitor, single point]
COCCCNc1nc2c(c(=O)n(C)c(=O)n2C)n1Cc1cccc(OC)c1	inconclusive: 31.6 µM [inhibitor, single point]
CCOc1cc(N2CCOCC2)c(OCC)cc1NC(=O)c1cc(S(=O)(=O)N2CCOCC2)ccc1Cl	inconclusive: 10 µM [inhibitor, partial curve]
CCOc1ccccc1Oc1cn[nH]c1-c1ccc(OCC(=O)NN)cc1O	inconclusive: 31.6 µM [inhibitor, single point]
CCOc1ccc(NC(=O)CN2C(=O)S/C(=C/c3cccn3C)C2=O)cc1	inconclusive: 20 µM [inhibitor, single point]
COc1cc2cncc(Cc3ccc(Cl)cc3)c2cc1OC	inconclusive: 20 µM [inhibitor, single point]
C=CCn1c(N2CCN(c3ccc(OC)cc3)CC2)nc2c1c(=O)n(C)c(=O)n2C	inconclusive: 31.6 µM [inhibitor, single point]
COc1ccccc1N1CCN(c2cc(N3CCCC3)nc(C)n2)CC1	inconclusive: 3.16 µM [inhibitor, partial curve]
CCc1ccc(-n2c(O)c(C=NCCN(CC)CC)c(=O)[nH]c2=O)cc1	inactive
Cc1ccc(S(=O)(=O)N(C)C)cc1NC(=S)Nc1ccc2cn[nH]c2c1	inactive
O=[N+]([O-])c1cc(/C=N/O)ccc1SCc1ccccc1Cl	inconclusive: 31.6 µM [inhibitor, single point]
O=C(Nc1cc(C(F)(F)F)ccc1N1CCOCC1)c1cn2ccccc2n1	inconclusive: 11.2 µM [inhibitor, partial curve]
O=C(NCCCN1CCOCC1)c1nn2c(C(F)(F)F)cc(-c3ccco3)nc2c1Cl	inconclusive: 31.6 µM [inhibitor, single point]

SMILES	Potency
CC(C)CCNC(=O)NC(=O)COC(=O)/C=C/c1cc(Br)ccc1F	inactive
CCCc1nc(C)cc(N2CCN(c3ccccc3)CC2)n1	inconclusive: 22.4 µM [inhibitor, single point]
O=C(CCCN1C(=O)/C(=C/c2cccs2)SC1=S)Nc1cccnc1	inconclusive: 31.6 µM [inhibitor, single point]
CCOc1ccc2c(c1)C(C)=CC(C)(C)N2S(=O)(=O)c1ccc(F)cc1	inconclusive: 31.6 µM [inhibitor, single point]
CSc1ccc(Cl)c(C(=O)Nc2ccc(N3CCOCC3)cc2)c1	inconclusive: 0.891 µM [inhibitor, full curve, poor fit]
COc1ccccc1C(=O)NCCC(=O)N1CCN(c2ccc(C(F)(F)F)cn2)CC1	inconclusive: 2.82 µM [inhibitor, partial curve]
CC1CCCN(C(=O)CN2C(=O)NC3(CCCCC3C)C2=O)C1 (centres undefined)	inactive
Cc1ccc(S(=O)(=O)N(C)/N=C2/C(=O)N(CC(=O)O)c3ccccc32)cc1	inactive
COC(=O)c1cccc(NC(=O)/C=C/c2ccc3c(c2)OCO3)c1	inconclusive: 2.51 µM [inhibitor, full curve]
Cn1c(CNC(=O)c2ccco2)nnc1SCC(=O)N1CCN(c2ccccc2)CC1	inactive
Cc1ccccc1OCC(=O)Nc1ccncc1	inconclusive: 31.6 µM [inhibitor, single point]
COc1ccc(S(=O)(=O)N2CCc3ccccc32)cc1C(=O)NC1(C)CCS(=O)(=O)C1 (centres undefined)	inactive
C=CCN(c1ccccc1)S(=O)(=O)c1cccc(C(=O)NCC2CCCO2)c1 (centres undefined)	inconclusive: 31.6 µM [inhibitor, single point]
CCCCCOc1ccc(CN2CCOCC2)cc1Cl	inactive
CC(C)(C)NS(=O)(=O)c1ccc(CCC(=O)Nc2ccc3c(c2)OCCO3)cc1	inactive
Cc1ccccc1S(=O)(=O)Nc1nc2ccccc2nc1NCCO	inconclusive: 5.62 µM [inhibitor, single point]
CC(=O)NC(Cc1c[nH]c2ccccc12)C(=O)OCC(=O)N1CCN(S(=O)(=O)c2ccc(Cl)cc2)CC1 (centres undefined)	inactive
C=CCSc1nsc(NC(=O)Nc2cccc(C(C)=O)c2)n1	inconclusive: 12.6 µM [inhibitor, single point]
O=C(CCc1nc2ccccc2c(=O)[nH]1)Nc1ccc(Cl)c(Cl)c1	inconclusive: 31.6 µM [inhibitor, single point]
CCOC(=O)C1CCN(C(=O)COc2ccc(S(=O)(=O)N3CCCC3)cc2C)CC1	inactive
CCCNS(=O)(=O)c1ccc(OCC(=O)N2CCN(Cc3ccc4c(c3)OCO4)CC2)cc1	inconclusive: 7.94 µM [inhibitor, partial curve] and inconclusive: 2.24 µM [inhibitor, full curve]
O=C(Nc1cnn(Cc2ccc(Cl)c(Cl)c2)c1)C12CC3CC(CC(C3)C1)C2	inconclusive: 10 µM [inhibitor, single point]
O=C1CN(C(=O)c2ccccc2)C(c2ccccc2)c2cc(Cl)ccc2N1 (centres undefined)	inconclusive: 8.91 µM [inhibitor, partial curve]

SMILES	Potency
CCOC(=O)C1C(OC(=O)c2ccccc2)CC2CCC1N2C (centres undefined)	inconclusive: 3.55 µM [inhibitor, single point]
COc1ccccc1CNC(=O)CCCn1c(=O)c2ccccc2n(CC(=O)NC2CCCC2)c1=O	inconclusive: 31.6 µM [inhibitor, single point]
COCCn1c(C)cc(C(=O)CSc2nnc(-c3cccnc3)n2-c2ccccc2F)c1C	inactive
CN(C)c1ccc(/C=N/Nc2cc(N3CCOCC3)nc(N3CCOCC3)n2)cc1	active: 3.98 µM
COc1ccc(OCCCC(=O)Nc2cc([N+](=O)[O-])ccc2C)cc1	inactive
CCN(c1ccccc1)S(=O)(=O)c1ccc(OC)c(NC(=O)c2cc(F)c(F)c(F)c2F)c1	inactive
COc1cc(/C=C/c2ccc3cccc(OC)c3n2)c(O)c([N+](=O)[O-])c1	inconclusive: 12.6 µM [inhibitor, single point]
Cc1cc(C)nc(SCC(=O)N/N=C\C(Br)=C\c2ccccc2)n1	inconclusive: 8.91 µM [inhibitor, single point]
CC1CCN(C(=O)COC(=O)c2ccccc2NC(=O)c2ccco2)CC1	inconclusive: 31.6 µM [inhibitor, single point]
O=c1[nH]c(C2CCCN(S(=O)(=O)c3cccc(F)c3)C2)nc2c1nnn2Cc1ccccc1 (centres undefined)	inactive
COc1ccc(-c2cc(C(=O)Nc3ccc(O)cc3)c3ccccc3n2)cc1OC	inconclusive: 12.6 µM [inhibitor, single point]
O=C(c1ccccc1)n1ccc(-c2cnc(-c3ccccc3)s2)n1	inconclusive: 31.6 µM [inhibitor, single point]
Cc1ccc(/C=C/C(=O)OCC(=O)Nc2cccnc2Cl)cc1	inactive
CC(=O)Nc1ccc2nc(C3CC3)n(Cc3ccc(Cl)cc3)c(=O)c2c1	inconclusive: 22.4 µM [inhibitor, single point]
CC(=O)c1ccc(S(=O)(=O)Nc2ccc(-c3cn4c(n3)SCC4)cc2)cc1	inconclusive: 0.708 µM [inhibitor, full curve, poor fit]
Cc1ccc2c(C)c(C(=O)N3CCN(c4ccncc4)CC3)oc2c1C	inconclusive: 31.6 µM [inhibitor, single point]
CC1CCN(C(=O)c2ccc3c(c2)NC(=O)/C(=C/c2ccccc2)S3)CC1	inconclusive: 22.4 µM [inhibitor, single point]
Cc1cc(NC(=O)c2cccc(S(=O)(=O)N3CCC(C)CC3)c2)no1	inactive
Fc1ccc(NC(=S)Nc2cc(-c3ccccc3)[nH]n2)cc1Cl	inconclusive: 31.6 µM [inhibitor, single point]
CCN(c1ccccc1)S(=O)(=O)c1ccc(C(=O)Nc2nnc(-c3ccco3)o2)cc1	inconclusive: 31.6 µM [inhibitor, single point]
COc1cc(C2NC(=O)NC(O)(C(F)(F)F)C2C(=O)c2ccc(Cl)cc2)ccc1O (centres undefined)	inactive
CN1/C(=C\C=N\NC(=O)c2cccnc2)C(C)(C)c2ccccc21	inactive
COc1ccc(C)cc1NC(=O)c1nn(C)cc1Br	inconclusive: 14.1 µM [inhibitor, single point]

From PubChem BioAssay AID651820 (National Center for Advancing Translational Sciences (NCATS), 2012)
